Numbering of substitutions follows the chain as printed; changes in the protein carry UniProt numbers. Some of the results follow.
T1: RBFOX1 RRM (Homo sapiens, UniProt Q9NWB1 109-208)
T1 sequence: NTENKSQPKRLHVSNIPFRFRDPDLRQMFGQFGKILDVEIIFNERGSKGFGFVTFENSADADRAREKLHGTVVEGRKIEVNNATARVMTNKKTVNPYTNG

B1: AUUAUGU (DNA:RNA)
RNA: GGGAGACCGGAAUUCAGAUUGUCCAUUAUGUUUAAAUCCCGUCGUAGCCACCA
DNA 1: CAATCTGAATTCCGGTCTCCC
DNA 2: TGGTGGCTACGACGGGATT
B2: ACCAGAC (DNA:RNA)
RNA: B1 RNA with U26C, U27C, U29G, G30A, U31C
DNA 1: CAATCTGAATTCCGGTCTCCC
DNA 2: TGGTGGCTACGACGGGATT
B3: GAGGUUA (DNA:RNA)
RNA: B1 RNA with A25G, U26A, U27G, A28G, G30U, U31A
DNA 1: CAATCTGAATTCCGGTCTCCC
DNA 2: TGGTGGCTACGACGGGATT
B4: GAUGUCU (DNA:RNA)
RNA: B1 RNA with A25G, U26A, A28G, G30C
DNA 1: CAATCTGAATTCCGGTCTCCC
DNA 2: TGGTGGCTACGACGGGATT
B5: AGCCCGG (DNA:RNA)
RNA: B1 RNA with U26G, U27C, A28C, U29C, U31G
DNA 1: CAATCTGAATTCCGGTCTCCC
DNA 2: TGGTGGCTACGACGGGATT
B6: GGGUUAC (DNA:RNA)
RNA: B1 RNA with A25G, U26G, U27G, A28U, G30A, U31C
DNA 1: CAATCTGAATTCCGGTCTCCC
DNA 2: TGGTGGCTACGACGGGATT
B7: UCAGCGC (DNA:RNA)
RNA: B1 RNA with A25U, U26C, U27A, A28G, U29C, U31C
DNA 1: CAATCTGAATTCCGGTCTCCC
DNA 2: TGGTGGCTACGACGGGATT
B8: UCUCGGC (DNA:RNA)
RNA: B1 RNA with A25U, U26C, A28C, U29G, U31C
DNA 1: CAATCTGAATTCCGGTCTCCC
DNA 2: TGGTGGCTACGACGGGATT
B9: AGACACC (DNA:RNA)
RNA: B1 RNA with U26G, U27A, A28C, U29A, G30C, U31C
DNA 1: CAATCTGAATTCCGGTCTCCC
DNA 2: TGGTGGCTACGACGGGATT
B10: GAAUGAU (DNA:RNA)
RNA: B1 RNA with A25G, U26A, U27A, A28U, U29G, G30A
DNA 1: CAATCTGAATTCCGGTCTCCC
DNA 2: TGGTGGCTACGACGGGATT
B11: CUUACUC (DNA:RNA)
RNA: B1 RNA with A25C, U29C, G30U, U31C
DNA 1: CAATCTGAATTCCGGTCTCCC
DNA 2: TGGTGGCTACGACGGGATT
B12: UAAACGG (DNA:RNA)
RNA: B1 RNA with A25U, U26A, U27A, U29C, U31G
DNA 1: CAATCTGAATTCCGGTCTCCC
DNA 2: TGGTGGCTACGACGGGATT
B13: AGAGGCG (DNA:RNA)
RNA: B1 RNA with U26G, U27A, A28G, U29G, G30C, U31G
DNA 1: CAATCTGAATTCCGGTCTCCC
DNA 2: TGGTGGCTACGACGGGATT
B14: AGUGACA (DNA:RNA)
RNA: B1 RNA with U26G, A28G, U29A, G30C, U31A
DNA 1: CAATCTGAATTCCGGTCTCCC
DNA 2: TGGTGGCTACGACGGGATT
B15: AUUGUCC (DNA:RNA)
RNA: B1 RNA with A28G, G30C, U31C
DNA 1: CAATCTGAATTCCGGTCTCCC
DNA 2: TGGTGGCTACGACGGGATT
B16: GGCCCUG (DNA:RNA)
RNA: GGGAGACCGGAAUUCAGAUUGUCCGGCCCUGUUAAAUCCCGUCGUAGCCACCA
DNA 1: CAATCTGAATTCCGGTCTCCC
DNA 2: TGGTGGCTACGACGGGATT
B17: GAACUCC (DNA:RNA)
RNA: B16 RNA with G26A, C27A, C29U, U30C, G31C
DNA 1: CAATCTGAATTCCGGTCTCCC
DNA 2: TGGTGGCTACGACGGGATT
B18: GCCGUGU (DNA:RNA)
RNA: B1 RNA with A25G, U26C, U27C, A28G
DNA 1: CAATCTGAATTCCGGTCTCCC
DNA 2: TGGTGGCTACGACGGGATT
B19: GUUGACG (DNA:RNA)
RNA: B1 RNA with A25G, A28G, U29A, G30C, U31G
DNA 1: CAATCTGAATTCCGGTCTCCC
DNA 2: TGGTGGCTACGACGGGATT
B20: UCAAUGC (DNA:RNA)
RNA: B1 RNA with A25U, U26C, U27A, U31C
DNA 1: CAATCTGAATTCCGGTCTCCC
DNA 2: TGGTGGCTACGACGGGATT
B21: GUUGUAU (DNA:RNA)
RNA: B1 RNA with A25G, A28G, G30A
DNA 1: CAATCTGAATTCCGGTCTCCC
DNA 2: TGGTGGCTACGACGGGATT
B22: CGCUGGC (DNA:RNA)
RNA: B16 RNA with G25C, C28U, C29G, U30G, G31C
DNA 1: CAATCTGAATTCCGGTCTCCC
DNA 2: TGGTGGCTACGACGGGATT
B23: UUGGCUC (DNA:RNA)
RNA: B16 RNA with G25U, G26U, C27G, C28G, G31C
DNA 1: CAATCTGAATTCCGGTCTCCC
DNA 2: TGGTGGCTACGACGGGATT
B24: CCCAGUA (DNA:RNA)
RNA: B16 RNA with G25C, G26C, C28A, C29G, G31A
DNA 1: CAATCTGAATTCCGGTCTCCC
DNA 2: TGGTGGCTACGACGGGATT
B25: UCAAUCG (DNA:RNA)
RNA: B1 RNA with A25U, U26C, U27A, G30C, U31G
DNA 1: CAATCTGAATTCCGGTCTCCC
DNA 2: TGGTGGCTACGACGGGATT
B26: GGACGCC (DNA:RNA)
RNA: B16 RNA with C27A, C29G, U30C, G31C
DNA 1: CAATCTGAATTCCGGTCTCCC
DNA 2: TGGTGGCTACGACGGGATT
B27: GUCGAAA (DNA:RNA)
RNA: B16 RNA with G26U, C28G, C29A, U30A, G31A
DNA 1: CAATCTGAATTCCGGTCTCCC
DNA 2: TGGTGGCTACGACGGGATT
B28: CGCCGAU (DNA:RNA)
RNA: B16 RNA with G25C, C29G, U30A, G31U
DNA 1: CAATCTGAATTCCGGTCTCCC
DNA 2: TGGTGGCTACGACGGGATT
B29: GUGAGCC (DNA:RNA)
RNA: B1 RNA with A25G, U27G, U29G, G30C, U31C
DNA 1: CAATCTGAATTCCGGTCTCCC
DNA 2: TGGTGGCTACGACGGGATT
B30: UGGCUCA (DNA:RNA)
RNA: B16 RNA with G25U, C27G, C29U, U30C, G31A
DNA 1: CAATCTGAATTCCGGTCTCCC
DNA 2: TGGTGGCTACGACGGGATT
B31: AACAAAA (DNA:RNA)
RNA: B1 RNA with U26A, U27C, U29A, G30A, U31A
DNA 1: CAATCTGAATTCCGGTCTCCC
DNA 2: TGGTGGCTACGACGGGATT

Each binder was assayed against T1, RBFOX1 RRM (assay: EMSA; HiTS-Eq, 1 nM pool, 10 min; buffer printed only for the single-RNA assays: 10 mM Tris pH 7.5, 150 mM NaCl, 3.4 mM EDTA, 0.001% NP-40, 30 C). Settings: tags: His6 N-terminal (pET28a); label: 5' 32P.
Method in brief: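 Purified RbFox RRM (wild type or mutant) was equilibrated for 10 min in 50 µL with 1 nM of a 5′-radiolabelled pool of RNA with 7 randomized nucleotides, its flanks annealed to DNA oligonucleotides, across increasing protein concentrations. Free RNA was separated by 8% native PAGE, excised, reverse-transcribed, PCR-barcoded and sequenced on an Illumina HiSeq 2500. Relative association constants came from read-count changes of each variant against the control reaction, normalised to the cognate motif.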

Row | Binder | binding signal
1 | B1 | 0.00621 KA relative to UGCAUGU
2 | B2 | 0.00401 KA relative to UGCAUGU
3 | B3 | 0.0124 KA relative to UGCAUGU
4 | B4 | 0.0204 KA relative to UGCAUGU
5 | B5 | 0.0103 KA relative to UGCAUGU
6 | B6 | 0.0178 KA relative to UGCAUGU
7 | B7 | 0.00976 KA relative to UGCAUGU
8 | B8 | 0.012 KA relative to UGCAUGU
9 | B9 | 0.00302 KA relative to UGCAUGU
10 | B10 | 0.0221 KA relative to UGCAUGU
11 | B11 | 0.00612 KA relative to UGCAUGU
12 | B12 | 0.00824 KA relative to UGCAUGU
13 | B13 | 0.0154 KA relative to UGCAUGU
14 | B14 | 0.00523 KA relative to UGCAUGU
15 | B15 | 0.00619 KA relative to UGCAUGU
16 | B16 | 0.0193 KA relative to UGCAUGU

Row | Binder | binding signal
17 | B17 | 0.00433 KA relative to UGCAUGU
18 | B18 | 0.015 KA relative to UGCAUGU
19 | B19 | 0.0143 KA relative to UGCAUGU
20 | B20 | 0.0089 KA relative to UGCAUGU
21 | B21 | 0.0103 KA relative to UGCAUGU
22 | B22 | 0.0221 KA relative to UGCAUGU
23 | B23 | 0.0219 KA relative to UGCAUGU
24 | B24 | 0.000997 KA relative to UGCAUGU
25 | B25 | 0.0054 KA relative to UGCAUGU
26 | B26 | 0.0124 KA relative to UGCAUGU
27 | B27 | 0.0123 KA relative to UGCAUGU
28 | B28 | 0.0073 KA relative to UGCAUGU
29 | B29 | 0.0135 KA relative to UGCAUGU
30 | B30 | 0.0141 KA relative to UGCAUGU
31 | B31 | 0.000431 KA relative to UGCAUGU

Reference: paper PMC9911399, “Two distinct binding modes provide the RNA-binding protein RbFox with extraordinary sequence specificity”
